{"source": "PubChem BioAssay AID759", "about": "(NMMLSC, 2007)", "note": "In all, about 190,000 compounds went through this assay and about 270 (0.14%) were called active. Inconclusive results, whose numbers are uncertain, are shown with a selection of clear calls.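 Rule for the calls: active = GTP binding activity at least 20% away from the 100% baseline, either lowered as inhibitor or raised as activator; inconclusive = flagged as likely green fluorescent, judged across all proteins in the well; inactive = the rest.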"}
{"molecular_target": "GTPase HRas (Homo sapiens) (UniProt P01112)", "sequence (P01112 whole entry, looked up)": "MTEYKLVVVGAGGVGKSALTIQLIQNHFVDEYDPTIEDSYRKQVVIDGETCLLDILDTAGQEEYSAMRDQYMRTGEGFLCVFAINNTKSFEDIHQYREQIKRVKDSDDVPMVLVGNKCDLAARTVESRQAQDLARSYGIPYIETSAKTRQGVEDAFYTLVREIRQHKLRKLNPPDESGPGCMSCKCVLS", "assay": "HRas wt fluorescent GTP binding changes, either direction – biochemical, wildtype, bead-based flow cytometry, multiplex, primary screen (AID 759);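 note: 0% = unlabeled GTP competition control and 100% = no-compound control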", "details": "GST-Ras wt beads, Bodipy-FL-GTP binding, at 10 µM, actives lie on both sides"}
{"compound": "O=C1NC(=S)N/C1=C/c1cc([N+](=O)[O-])ccc1N1CCOCC1", "GTP binding activity": "inconclusive: 87%"}
{"compound": "Cc1ccc(C2=Nc3cccnc3C(c3ccccc3)=NN2)cc1", "GTP binding activity": "inactive: 99%"}
{"compound": "CCN1CCCC1CNC(=O)c1ccc(N2CCOCC2)c(NS(=O)(=O)c2ccc(OC)cc2)c1", "note": "(stereo unspecified)", "GTP binding activity": "inactive: 99%"}
{"compound": "CC(C)C(=O)Nc1c(O)c2ccccc2[nH]c1=O", "GTP binding activity": "inconclusive: 96%"}
{"compound": "Cc1cc(C)nc(NS(=O)(=O)c2ccc(NC(=O)CCC3COc4ccccc4O3)cc2)n1", "note": "(stereo unspecified)", "GTP binding activity": "inconclusive: 92%"}
{"compound": "O=C1CCCc2ccccc2N1Cc1ccccc1", "GTP binding activity": "inconclusive: 95%"}
{"compound": "COc1ccccc1CN1CCNC(=O)C1CC(=O)NCCOc1cccnc1", "note": "(stereo unspecified)", "GTP binding activity": "inactive: 101%"}
{"compound": "COc1ccc2cc(C)c3nnc(SCc4cccnc4)n3c2c1", "GTP binding activity": "inactive: 82%"}
{"compound": "COC(=O)c1sccc1NC(=O)Nc1cccc(F)c1", "GTP binding activity": "inconclusive: 87%"}
{"compound": "CC1CN(C(=O)CSc2nnc(-c3ccncc3)n2-c2ccccc2)CC(C)O1", "note": "(stereo unspecified)", "GTP binding activity": "inconclusive: 91%"}
{"compound": "CSc1cccc(NS(=O)(=O)c2cccc3nsnc23)c1", "GTP binding activity": "inconclusive: 99%"}
{"compound": "O=C1/C(=C\\c2ccc(-c3ccccc3Cl)o2)SC(=S)N1CC1CCCO1", "note": "(stereo unspecified)", "GTP binding activity": "active: 55%"}
{"compound": "CCOc1ccc(C(=O)NCC(=O)N2CCC(C)CC2)cc1OCC", "GTP binding activity": "inactive: 95%"}
{"compound": "O=C(NNC(=O)c1cccc(O)c1)Nc1ccc([N+](=O)[O-])cc1", "GTP binding activity": "inconclusive: 96%"}
{"compound": "COc1cc(/C=N/Nc2nncn2/N=C/c2ccc(O)c(OC)c2)ccc1O", "GTP binding activity": "active: 76%"}
{"compound": "COc1ccc(C(=O)NCc2nnc(SCC(=O)NCc3ccc(F)cc3)o2)cc1", "GTP binding activity": "inconclusive: 104%"}
{"compound": "CCN(CC)S(=O)(=O)c1cccc(NC(=O)CN2C(=O)c3ccc([N+](=O)[O-])cc3C2=O)c1", "GTP binding activity": "inactive: 101%"}
{"compound": "c1ccc(CSc2nnnn2-c2cccc3ccccc23)nc1", "GTP binding activity": "inconclusive: 105%"}
{"compound": "CCOc1cc(NC(=S)NCCCN(C)C)c(OCC)cc1NC(=O)c1cccs1", "GTP binding activity": "inconclusive: 104%"}
{"compound": "CC(C)(C)C1CCc2onc(C(=O)Nc3cnn(Cc4ccc(F)cc4)c3)c2C1", "note": "(stereo unspecified)", "GTP binding activity": "inconclusive: 104%"}
{"compound": "O=C(O)CCCCCN1C(=O)C(O)=C(C(=O)/C=C/c2ccccc2)C1c1ccc2c(c1)OCO2", "note": "(stereo unspecified)", "GTP binding activity": "inconclusive: 88%"}
{"compound": "O=C(c1ccccc1)c1ccc(O)cc1O", "GTP binding activity": "inconclusive: 107%"}
{"compound": "Cc1ccc(-n2c(-c3cnccn3)n[nH]c2=S)c(Br)c1", "GTP binding activity": "inactive: 80%"}
{"compound": "OCCC1CN(Cc2cn[nH]c2C2CCCCC2)CCN1C1CCCC1", "note": "(stereo unspecified)", "GTP binding activity": "inactive: 101%"}
{"compound": "COc1cc2c(cc1NC(=O)CSc1ccccn1)oc1ccccc12", "GTP binding activity": "inconclusive: 104%"}
{"compound": "O=C(Nc1ccccc1C(=O)N1CCOCC1)c1ccc(CSc2ccccc2)cc1", "GTP binding activity": "inactive: 100%"}
